Experimental data: patent US20250059278A1 (SICHUAN HUIYU PHARMACEUTICAL, published 2025)

B1: CD3-MSLN bispecific antibody B28 (bispecific antibody, human IgG1, lambda)
heavy: EVQLVESGGGLVQPGGSLRLSCAASGFTFNTYAMNWVRQAPGKGLEWVARIRSKYNNYATYYADSVKDRFTISRDDSKSILYLQMNSLKTEDTAMYYCVRHHNFGNSYVSWFAYWGQGTLVTVSSASTKGPSVFPLAPSSKSTSGGTAALGCLVKDYFPEPVTVSWNSGALTSGVHTFPAVLQSSGLYSLSSVVTVPSSSLGTQTYICNVNHKPSNTKVDKKV[letters of human IgG1 Fc with changes omitted]GGGGSGGGGSEVQLVESGGGLVQAGESLRLSCAVSGNIGSIRHMGWHRQDPGKERELVATITTVGTTYYANFVKGRFTISRDNAKNTVYLQMNSLKPEDTGVYYCRATAHPTDYWGQGTQVTVSS
light: [letters of about 100 residues omitted][letters of about 100 residues omitted]
notes: [VH28]-[CH]-[L]-[3C6 VHH] with [VL-1]-[CL]
B2: CD3-MSLN bispecific antibody B2 (bispecific antibody, human IgG1, lambda)
heavy: EVQLVESGGGLVQPGGSLRLSCAASGFTFNTYAMNWVRQAPGKGLEWVARIRSKYNNYATYYADSVKGRFTISRDDSKSSLYLQMNSLKTEDTAMYYCVRAKNFGNSYVSWFAYWGQGTLVTVSSASTKGPSVFPLAPSSKSTSGGTAALGCLVKDYFPEPVTVSWNSGALTSGVHTFPAVLQSSGLYSLSSVVTVPSSSLGTQTYICNVNHKPSNTKVDKKV[letters of human IgG1 Fc with changes omitted]GGGGSGGGGSEVQLVESGGGLVQAGESLRLSCAVSGNIGSIRHMGWHRQDPGKERELVATITTVGTTYYANFVKGRFTISRDNAKNTVYLQMNSLKPEDTGVYYCRATAHPTDYWGQGTQVTVSS
light: [letters of about 100 residues omitted][letters of about 100 residues omitted]
notes: [VH2]-[CH]-[L]-[3C6 VHH] with [VL-1]-[CL]
B3: CD3-MSLN bispecific antibody B4 (bispecific antibody, human IgG1, lambda)
heavy: EVQLVESGGGLVQPGGSLRLSCAASGFTFNTYAMNWVRQAPGKGLEWVARIRSKYNNYATYYADSVKDRFTISRDDSKSILYLQMNNLKTEDTAVYYCVRHGNFQNSYVSWFQYWGQGTLVTVSSASTKGPSVFPLAPSSKSTSGGTAALGCLVKDYFPEPVTVSWNSGALTSGVHTFPAVLQSSGLYSLSSVVTVPSSSLGTQTYICNVNHKPSNTKVDKKV[letters of human IgG1 Fc with changes omitted]GGGGSGGGGSEVQLVESGGGLVQAGESLRLSCAVSGNIGSIRHMGWHRQDPGKERELVATITTVGTTYYANFVKGRFTISRDNAKNTVYLQMNSLKPEDTGVYYCRATAHPTDYWGQGTQVTVSS
light: [letters of about 100 residues omitted][letters of about 100 residues omitted]
notes: [VH4]-[CH]-[L]-[3C6 VHH] with [VL-1]-[CL]
B4: CD3-MSLN bispecific antibody B5 (bispecific antibody, human IgG1, lambda)
heavy: EVQLVESGGGLVQPGGSLRLSCAASGFTFNTYAMNWVRQAPGKGLEWVARIRSKYNNYATYYADSVKDRFTISRDDSKSILYLQMNSLKTEDTAVYYCVRHGNFKNSYVSWFAYWGQGTLVTVSSASTKGPSVFPLAPSSKSTSGGTAALGCLVKDYFPEPVTVSWNSGALTSGVHTFPAVLQSSGLYSLSSVVTVPSSSLGTQTYICNVNHKPSNTKVDKKV[letters of human IgG1 Fc with changes omitted]GGGGSGGGGSEVQLVESGGGLVQAGESLRLSCAVSGNIGSIRHMGWHRQDPGKERELVATITTVGTTYYANFVKGRFTISRDNAKNTVYLQMNSLKPEDTGVYYCRATAHPTDYWGQGTQVTVSS
light: [letters of about 100 residues omitted][letters of about 100 residues omitted]
notes: [VH5]-[CH]-[L]-[3C6 VHH] with [VL-1]-[CL]
B5: CD3-MSLN bispecific antibody B6 (bispecific antibody, human IgG1, lambda)
heavy: EVQLVESGGGLVQPGGSLRLSCAASGFTFNTYAMNWVRQAPGKGLEWVARIRSKYNNYATYYADSVKGRFTISRDDSKSSLYLQMNSLKTEDTAMYYCVRHGNFYNSYVSWFAHWGQGTLVTVSSASTKGPSVFPLAPSSKSTSGGTAALGCLVKDYFPEPVTVSWNSGALTSGVHTFPAVLQSSGLYSLSSVVTVPSSSLGTQTYICNVNHKPSNTKVDKKV[letters of human IgG1 Fc with changes omitted]GGGGSGGGGSEVQLVESGGGLVQAGESLRLSCAVSGNIGSIRHMGWHRQDPGKERELVATITTVGTTYYANFVKGRFTISRDNAKNTVYLQMNSLKPEDTGVYYCRATAHPTDYWGQGTQVTVSS
light: [letters of about 100 residues omitted][letters of about 100 residues omitted]
notes: [VH6]-[CH]-[L]-[3C6 VHH] with [VL-1]-[CL]
B6: CD3-MSLN bispecific antibody B7 (bispecific antibody, human IgG1, lambda)
heavy: EVQLVESGGGLVQPGGSLRLSCAASGFTFNTYAMNWVRQAPGKGLEWVARIRSKYNNYATYYADSVKDRFTISRDDSKSSLYLQMNNLKTEDTAMYYCVRAGNFGNSYVSWFEYWGQGTLVTVSSASTKGPSVFPLAPSSKSTSGGTAALGCLVKDYFPEPVTVSWNSGALTSGVHTFPAVLQSSGLYSLSSVVTVPSSSLGTQTYICNVNHKPSNTKVDKKV[letters of human IgG1 Fc with changes omitted]GGGGSGGGGSEVQLVESGGGLVQAGESLRLSCAVSGNIGSIRHMGWHRQDPGKERELVATITTVGTTYYANFVKGRFTISRDNAKNTVYLQMNSLKPEDTGVYYCRATAHPTDYWGQGTQVTVSS
light: [letters of about 100 residues omitted][letters of about 100 residues omitted]
notes: [VH7]-[CH]-[L]-[3C6 VHH] with [VL-1]-[CL]
B7: CD3-MSLN bispecific antibody B9 (bispecific antibody, human IgG1, lambda)
heavy: EVQLVESGGGLVQPGGSLRLSCAASGFTFNTYAMNWVRQAPGKGLEWVARIRSKYNNYATYYADSVKGRFTISRDDSKSILYLQMNSLKTEDTAMYYCVRHGNFGNSYVSWFKYWGQGTLVTVSSASTKGPSVFPLAPSSKSTSGGTAALGCLVKDYFPEPVTVSWNSGALTSGVHTFPAVLQSSGLYSLSSVVTVPSSSLGTQTYICNVNHKPSNTKVDKKV[letters of human IgG1 Fc with changes omitted]GGGGSGGGGSEVQLVESGGGLVQAGESLRLSCAVSGNIGSIRHMGWHRQDPGKERELVATITTVGTTYYANFVKGRFTISRDNAKNTVYLQMNSLKPEDTGVYYCRATAHPTDYWGQGTQVTVSS
light: [letters of about 100 residues omitted][letters of about 100 residues omitted]
notes: [VH9]-[CH]-[L]-[3C6 VHH] with [VL-1]-[CL]
B8: CD3-MSLN bispecific antibody B10 (bispecific antibody, human IgG1, lambda)
heavy: EVQLVESGGGLVQPGGSLRLSCAASGFTFNTYAMNWVRQAPGKGLEWVARIRSKYNNYATYYADSVKDRFTISRDDSKSSLYLQMNSLKTEDTAVYYCVRHSNFRNSYVSWFAYWGQGTLVTVSSASTKGPSVFPLAPSSKSTSGGTAALGCLVKDYFPEPVTVSWNSGALTSGVHTFPAVLQSSGLYSLSSVVTVPSSSLGTQTYICNVNHKPSNTKVDKKV[letters of human IgG1 Fc with changes omitted]GGGGSGGGGSEVQLVESGGGLVQAGESLRLSCAVSGNIGSIRHMGWHRQDPGKERELVATITTVGTTYYANFVKGRFTISRDNAKNTVYLQMNSLKPEDTGVYYCRATAHPTDYWGQGTQVTVSS
light: [letters of about 100 residues omitted][letters of about 100 residues omitted]
notes: [VH10]-[CH]-[L]-[3C6 VHH] with [VL-1]-[CL]
B9: CD3-MSLN bispecific antibody B11 (bispecific antibody, human IgG1, lambda)
heavy: EVQLVESGGGLVQPGGSLRLSCAASGFTFNTYAMNWVRQAPGKGLEWVARIRSKYNNYATYYADSVKDRFTISRDDSKSSLYLQMNSLKTEDTAVYYCVRHSNFVNSYVSWFAYWGQGTLVTVSSASTKGPSVFPLAPSSKSTSGGTAALGCLVKDYFPEPVTVSWNSGALTSGVHTFPAVLQSSGLYSLSSVVTVPSSSLGTQTYICNVNHKPSNTKVDKKV[letters of human IgG1 Fc with changes omitted]GGGGSGGGGSEVQLVESGGGLVQAGESLRLSCAVSGNIGSIRHMGWHRQDPGKERELVATITTVGTTYYANFVKGRFTISRDNAKNTVYLQMNSLKPEDTGVYYCRATAHPTDYWGQGTQVTVSS
light: [letters of about 100 residues omitted][letters of about 100 residues omitted]
notes: [VH11]-[CH]-[L]-[3C6 VHH] with [VL-1]-[CL]
B10: CD3-MSLN bispecific antibody B12 (bispecific antibody, human IgG1, lambda)
heavy: EVQLVESGGGLVQPGGSLRLSCAASGFTFNTYAMNWVRQAPGKGLEWVARIRSKYNNYATYYADSVKGRFTISRDDSKSSLYLQMNNLKTEDTAMYYCVRHSNFPNSYVSWFAYWGQGTLVTVSSASTKGPSVFPLAPSSKSTSGGTAALGCLVKDYFPEPVTVSWNSGALTSGVHTFPAVLQSSGLYSLSSVVTVPSSSLGTQTYICNVNHKPSNTKVDKKV[letters of human IgG1 Fc with changes omitted]GGGGSGGGGSEVQLVESGGGLVQAGESLRLSCAVSGNIGSIRHMGWHRQDPGKERELVATITTVGTTYYANFVKGRFTISRDNAKNTVYLQMNSLKPEDTGVYYCRATAHPTDYWGQGTQVTVSS
light: [letters of about 100 residues omitted][letters of about 100 residues omitted]
notes: [VH12]-[CH]-[L]-[3C6 VHH] with [VL-1]-[CL]
B11: CD3-MSLN bispecific antibody B15 (bispecific antibody, human IgG1, lambda)
heavy: EVQLVESGGGLVQPGGSLRLSCAASGFTFNTYAMNWVRQAPGKGLEWVARIRSKYNNYATYYADSVKDRFTISRDDSKSSLYLQMNSLKTEDTAMYYCVRHGDPGNSYVSWFAYWGQGTLVTVSSASTKGPSVFPLAPSSKSTSGGTAALGCLVKDYFPEPVTVSWNSGALTSGVHTFPAVLQSSGLYSLSSVVTVPSSSLGTQTYICNVNHKPSNTKVDKKV[letters of human IgG1 Fc with changes omitted]GGGGSGGGGSEVQLVESGGGLVQAGESLRLSCAVSGNIGSIRHMGWHRQDPGKERELVATITTVGTTYYANFVKGRFTISRDNAKNTVYLQMNSLKPEDTGVYYCRATAHPTDYWGQGTQVTVSS
light: [letters of about 100 residues omitted][letters of about 100 residues omitted]
notes: [VH15]-[CH]-[L]-[3C6 VHH] with [VL-1]-[CL]
B12: CD3-MSLN bispecific antibody B18 (bispecific antibody, human IgG1, lambda)
heavy: EVQLVESGGGLVQPGGSLRLSCAASGFTFNTYAMNWVRQAPGKGLEWVARIRSKYNNYATYYADSVKDRFTISRDDSKSSLYLQMNSLKTEDTAMYYCVRAGNFGNSYVNWFAYWGQGTLVTVSSASTKGPSVFPLAPSSKSTSGGTAALGCLVKDYFPEPVTVSWNSGALTSGVHTFPAVLQSSGLYSLSSVVTVPSSSLGTQTYICNVNHKPSNTKVDKKV[letters of human IgG1 Fc with changes omitted]GGGGSGGGGSEVQLVESGGGLVQAGESLRLSCAVSGNIGSIRHMGWHRQDPGKERELVATITTVGTTYYANFVKGRFTISRDNAKNTVYLQMNSLKPEDTGVYYCRATAHPTDYWGQGTQVTVSS
light: [letters of about 100 residues omitted][letters of about 100 residues omitted]
notes: [VH18]-[CH]-[L]-[3C6 VHH] with [VL-1]-[CL]

Key:
[1] = molecular target: T1, Human CD3εγ recombinant antigen (acrobiosystems, Cat. No. CDG-H52W5) (human, UniProt P07766 23-126; P09693 23-116); test: SPR chip (Carterra), antibody captured, antigen in flow
T1 construct: Bought recombinant protein

[2] = molecular target: T2, Monkey CD3 on cynomolgus HSC-F cells (cynomolgus monkey, UniProt Q95LI5 22-198; Q95LI7 23-181; Q95LI8 22-171); test: flow cytometry on HSC-F cells
T2 construct: whole, on cells; also called Monkey CD3-expressing cynomolgus HSC-F cells; cynomolgus monkey CD3-expressing HSC-F cells
T2 sequence (Q95LI5 22-198, chain 1 of 3): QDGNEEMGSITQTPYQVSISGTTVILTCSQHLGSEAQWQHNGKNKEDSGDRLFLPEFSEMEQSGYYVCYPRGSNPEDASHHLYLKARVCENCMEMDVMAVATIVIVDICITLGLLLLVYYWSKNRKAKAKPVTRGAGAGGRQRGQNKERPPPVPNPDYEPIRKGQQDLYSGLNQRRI
T2 sequence (Q95LI7 23-181, chain 2 of 3, further chain): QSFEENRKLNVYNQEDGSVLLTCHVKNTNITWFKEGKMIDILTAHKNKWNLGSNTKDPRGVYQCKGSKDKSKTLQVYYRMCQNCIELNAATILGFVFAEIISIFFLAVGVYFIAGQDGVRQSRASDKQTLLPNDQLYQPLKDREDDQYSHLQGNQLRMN
T2 sequence (Q95LI8 22-171, chain 3 of 3, further chain): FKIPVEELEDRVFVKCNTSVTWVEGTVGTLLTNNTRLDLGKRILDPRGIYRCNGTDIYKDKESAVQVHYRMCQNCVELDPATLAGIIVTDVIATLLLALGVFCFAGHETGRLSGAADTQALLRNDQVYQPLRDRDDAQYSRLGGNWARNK

[3] = molecular target: T3, Human CD3 on Jurkat cells (human, UniProt P07766; P09693; P04234); test: flow cytometry on Jurkat cells
T3 construct: whole, on cells; also called Human CD3-expressing Jurkat cells; Jurkat (naturally expressing human CD3)

Binder	Kd [1]	koff [1]	kon [1]	EC50 [2]	EC50 [3]
B1	3.7 nM	0.002 s⁻¹	540000 M⁻¹ s⁻¹		
B2	6.1 nM	0.0034 s⁻¹	550000 M⁻¹ s⁻¹	0.182 nM	0.131 nM
B3	1.5 nM	0.0022 s⁻¹	1.5e+06 M⁻¹ s⁻¹	0.585 nM	0.325 nM
B4	3.4 nM	0.0027 s⁻¹	800000 M⁻¹ s⁻¹	0.23 nM	0.181 nM
B5	3 nM	0.0025 s⁻¹	840000 M⁻¹ s⁻¹	0.237 nM	0.159 nM
B6	2.2 nM	0.0011 s⁻¹	510000 M⁻¹ s⁻¹	0.693 nM	1.36 nM
B7	2.5 nM	0.0035 s⁻¹	1.4e+06 M⁻¹ s⁻¹	0.329 nM	1.36 nM
B8	2.2 nM	0.002 s⁻¹	930000 M⁻¹ s⁻¹	0.216 nM	2.71 nM
B9	1.6 nM	0.0023 s⁻¹	1.4e+06 M⁻¹ s⁻¹	0.145 nM	0.106 nM
B10	1.2 nM	0.0021 s⁻¹	1.7e+06 M⁻¹ s⁻¹	0.179 nM	0.242 nM
B11				0.164 nM	0.17 nM
B12				0.954 nM	0.563 nM
